Assay results from PubChem BioAssay AID1460 (National Center for Advancing Translational Sciences (NCATS), 2008).
The campaign covered roughly 270,000 compounds. About 5,800 (2.1%) were called active. The shares of active, inactive and inconclusive entries below differ from those in the screen. Calls come from the whole dose curve; as a rule, active = well fitted inhibition curve with a large enough effect; inconclusive = small, poorly fitted or top-dose-only effect; inactive = flat fitted curve, though single readings scatter. Where the call is inconclusive, the potency comes from a doubtful curve fit.

What follows are molecules tested against Microtubule-associated protein tau (Homo sapiens) (UniProt P10636) (assay: qHTS for Inhibitors of Tau Fibril Formation, Thioflavin T Binding). Conditions: recombinant tau K18 P301L (four-repeat tau fragment), heparin-induced fibrillization, ThT fluorescence; series mostly up to 57.4 µM.
UniProt P10636, sequence (P10636 whole entry, looked up, the tested form may be a part): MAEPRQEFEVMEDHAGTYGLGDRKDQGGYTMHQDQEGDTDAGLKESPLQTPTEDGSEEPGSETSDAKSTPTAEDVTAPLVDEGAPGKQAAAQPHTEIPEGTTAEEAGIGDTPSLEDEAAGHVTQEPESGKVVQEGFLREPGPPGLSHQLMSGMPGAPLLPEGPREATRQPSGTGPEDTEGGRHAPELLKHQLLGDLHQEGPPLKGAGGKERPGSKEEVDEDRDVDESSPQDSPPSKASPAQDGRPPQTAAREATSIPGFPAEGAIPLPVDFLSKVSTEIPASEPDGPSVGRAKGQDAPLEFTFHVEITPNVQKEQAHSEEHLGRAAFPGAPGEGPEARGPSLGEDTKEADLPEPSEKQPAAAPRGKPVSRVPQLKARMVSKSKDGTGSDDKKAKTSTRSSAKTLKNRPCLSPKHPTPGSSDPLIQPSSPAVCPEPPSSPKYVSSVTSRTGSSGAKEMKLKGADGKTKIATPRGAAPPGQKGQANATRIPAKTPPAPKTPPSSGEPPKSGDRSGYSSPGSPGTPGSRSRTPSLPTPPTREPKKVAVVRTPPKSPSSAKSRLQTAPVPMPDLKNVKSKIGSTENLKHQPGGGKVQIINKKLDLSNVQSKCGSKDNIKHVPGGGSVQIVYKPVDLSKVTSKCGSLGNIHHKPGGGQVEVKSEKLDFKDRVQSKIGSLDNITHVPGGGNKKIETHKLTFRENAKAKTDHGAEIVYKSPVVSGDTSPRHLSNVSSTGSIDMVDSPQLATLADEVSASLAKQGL
In short: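 Tau K18 P301L fragment (15 uM unlabeled plus 0.24 uM Alexa 594-labeled) in 100 mM sodium acetate pH 7 with compound, fibrillization induced by 20 uM heparin for 6 hr at 37 C. Thioflavin T (30 uM) added, fluorescence read after 1 hr (ex 450, em 510 nm).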
% is set by controls: 0 for no effect and ±100 for the full control effect; potency is the fitted concentration of half-maximal effect; tags give direction and shape of the fitted curve.
Note: nearly all actives have a fitted effect of over 55% in size.

Row | Compound | Potency | activity, negative = inhibition
1 | CCC/C=C(\CCC)C(NC(=O)c1cccs1)c1ccc(C(=O)OC)cc1 (stereo unspecified) | inactive | –
2 | Cc1ccc(SCc2cc(=O)[nH]c(Nc3nc(C)c4ccccc4n3)n2)cc1 | inconclusive: 14.1 µM [inhibitor, partial curve] | –
3 | O=[N+]([O-])c1cccc(/C=C/c2nc(C=Nc3ccc4ccccc4c3)c(O)o2)c1 | active: 2 µM | –
4 | COc1cc(/C=C2\OC(=O)c3c(OC)cccc32)ccc1O | inconclusive: 2.51 µM [inhibitor, full curve] | –
5 | CC1=C(C(=O)Nc2ccccc2)C(c2ccccc2C)n2nc(SCC(=O)c3ccc(C)cc3)nc2N1 (stereo unspecified) | inconclusive: 17.8 µM [activator, partial curve] | –
6 | CC1CCc2sc(NC(=S)NC(=O)c3ccccc3)c(C#N)c2C1 (stereo unspecified) | inconclusive: 15.8 µM [inhibitor, partial curve] | –
7 | CCCCCCSc1nnc(-c2cnn(-c3ccccc3)c2-n2cccc2)n1C | inconclusive: 17.8 µM [inhibitor, partial curve] | –
8 | CCSc1nnc(NC(=O)COc2ccc(Cl)cc2)s1 | inconclusive: 3.98 µM [inhibitor, full curve, poor fit] | –
9 | Cc1ccc(-c2nsc(SCC(=O)NCc3ccc4c(c3)OCO4)n2)cc1 | inactive | –
10 | COc1cc(OC)c(OC)cc1CN1CCc2nc(Nc3ccc4c(c3)OCCO4)ncc2C1 | inconclusive: 28.2 µM [inhibitor, single point] | –
11 | O=[N+]([O-])c1ccc(O)c(C=Nc2ccc3nc(-c4ccccc4)[nH]c3c2)c1 | inconclusive: 28.2 µM [inhibitor, partial curve] | –
12 | COc1ccc(N=Cc2sc3ccccc3c2Cl)cc1 | inconclusive: 14.1 µM [inhibitor, partial curve] | –
13 | CC(/C=N/n1cnnc1)=C\c1ccco1 | inconclusive: 20 µM [inhibitor, partial curve] | –
14 | c1csc(Cc2nn3c(-c4ccncc4)nnc3s2)c1 | inconclusive: 35.5 µM [inhibitor, single point] | –
15 | CC(/C=C/c1ccco1)=N\NC(=O)CNc1ccc2ccccc2c1 | active: 7.94 µM | –
16 | Cc1cccc(-c2c3c(=O)n(C)c(=O)n(C)c3c3c(C)nc4ccccc4n23)c1 | inconclusive: 17.8 µM [inhibitor, partial curve, poor fit] | –
17 | CN(C)CCNC(=O)c1ccc(Sc2ccc(Br)cc2)c([N+](=O)[O-])c1 | inconclusive: 20 µM [inhibitor, single point] | –
18 | Cc1ccc(C)c(C(=O)CSc2n[nH]c(-c3ccncc3)n2)c1 | inactive | –
19 | Cc1ccc(-c2cc(C(=O)NCc3cnn(C)c3C)c3ccccc3n2)cc1C | inconclusive: 20 µM [inhibitor, single point] | –
20 | O=C(CSc1nnc(Cn2c(=O)sc3ccccc32)n1-c1ccccc1)N1CCOCC1 | inactive | –
21 | CCN(CC)c1ccc(NC(=O)OC)cc1 | inconclusive: 14.1 µM [inhibitor, partial curve] | –
22 | Cc1ccc(NC(=O)CN2C(=O)N/C(=C\c3cccn3-c3cccc(C(=O)O)c3)C2=O)cc1 | inactive | –
23 | CNc1ccc(SC#N)cc1 | active: 12.6 µM | –

Row | Compound | Potency | activity, negative = inhibition
24 | O=C(Cn1c(SCC(=O)NC2CCCC2)nnc1-c1ccncc1)Nc1ccc2c(c1)OCO2 | inconclusive: 39.8 µM [inhibitor, single point] | –
25 | Cc1cccc(N2CCN(C(=O)C3CCN(C(=O)c4cc5sccc5n4C)CC3)CC2)c1C | inconclusive: 31.6 µM [inhibitor, single point] | –
26 | Cc1ccc(C2Nc3cc(C)c(C)cc3-n3c(-c4ccccc4)c4c(=O)n(C)c(=O)n(C)c4c32)o1 (stereo unspecified) | inconclusive: 4.47 µM [inhibitor, full curve] | –
27 | CC(C)(C)OC(=O)N1CCC[C@H]1c1nnc(SCC(=O)Nc2cccc(Cl)c2)o1 | inactive | –
28 | CCOC(=O)c1c(C)oc2nc(C)nc(N3CCN(c4ccccc4F)CC3)c12 | inconclusive: 28.2 µM [inhibitor, single point] | –
29 | Cc1ccc(-c2[nH]c3c(c2-c2c(-n4cccc4)n(C)c(=O)[nH]c2=O)c(=O)[nH]c(=O)n3C)cc1 | inactive | –
30 | COc1cc(/C=C/C(=O)c2c(O)ccc3c(C)cc(=O)oc23)ccc1O | active: 15.8 µM | –
31 | COc1ccc(-n2c(Cc3cccn3C)nnc2SCC(=O)Nc2ccc(F)cc2F)cc1 | inactive | –
32 | C=CCOc1ccc(-c2n[nH]c(=S)o2)cc1 | inconclusive: 28.2 µM [inhibitor, single point] | –
33 | S=C1Cc2ccccc2N1 | active: 0.708 µM | –
34 | COC(=O)CSC1=C(C#N)C(c2ccccc2F)CC(=O)N1 (stereo unspecified) | inactive | –
35 | O=C(NOC(=O)c1ccccc1Cl)c1cccs1 | inconclusive: 22.4 µM [inhibitor, partial curve] | –
36 | Cc1ccc(/C=C2\SC(N3CCCC3)=NC2=O)cc1 | inconclusive: 20 µM [inhibitor, partial curve, poor fit] | –
37 | CCOc1ccc(-c2nc(C)c(C(C)=O)n2O)cc1 | inconclusive: 8.91 µM [inhibitor, full curve, poor fit] | –
38 | Cc1ccc(-c2cc(N)n(-c3ccc(C)cc3)n2)cc1 | inconclusive: 12.6 µM [inhibitor, partial curve] | –
39 | O=Cc1ccc(OC2C=CC(C#Cc3ccccc3)OC2CO)cc1 (stereo unspecified) | – | inactive: -7.02% [at 11.5 µM]
40 | Cc1nn2c(-c3ccco3)ccnc2c1-c1ccc(Br)cc1 | inconclusive: 3.98 µM [inhibitor, full curve] | –
41 | Cc1ccccc1CNC(=O)Cc1ccc(NC(=O)N2CCCCc3ccccc32)cc1 | inactive | –
42 | Cn1c(=O)c2c(nc(N3CCOCC3)n2Cc2cccc(Br)c2)n(C)c1=O | inactive | –
43 | COc1ccccc1C1CC(=O)Oc2cc(C)c(Br)c(C)c21 (stereo unspecified) | inconclusive: 17.8 µM [inhibitor, partial curve] | –
44 | Cc1[nH]n2c(=O)cc(-c3ccc(Cl)cc3)nc2c1-c1ccccc1 | active: 14.1 µM | –
45 | CC1=CC(=Nc2c(C)n(C)n(-c3ccccc3)c2=O)C=C(C)C1=O | active: 11.2 µM | –
46 | Nc1ccc(O)c(-c2nc3ccccc3s2)c1 | active: 10 µM | –
